Measured values from the supplement of paper PMC10986608.
The list shows a part of the results. Many values rest on one well or one pass, so single values are uncertain.

Each molecule was assayed on Candida albicans DPL-15 (assay: growth (OD600) after compound treatment (apparently relative to screen median) (relative growth (fraction; screen median 1.02)); DPL-15 is a caspofungin-resistant clinical isolate; higher = more fungal growth (less antifungal activity)). Settings: 25 µM; RPMI 1640; 48 h; 30 °C.
With `C=C(C)C1[C@H](c2cc(OC)c(O)c3oc4cc(OC)cc(O)c4c(=O)c23)C=C(C)C[C@H]1c1cc(OC)c(O)c2oc3cc(OC)cc(O)c3c(=O)c12` (some centres not stated) the growth was 1.11. For `CC(C)CCCN(C(=O)OC(C)(C)C)S(=O)(=O)NCC(F)(F)F`, the growth was 1.04. `COc1ccc(OC)c(N2C(=O)c3[nH]nc(CC(C)C)c3C2c2ccc(F)cc2)c1` (configuration not stated) gave a growth of 1.15. `COc1cc([C@H]2c3c(OC)c(O)c4cc(-c5ccccc5)oc(=O)c4c3[C@@H]3C=C(C)CC(C)(C)[C@H]23)c2c(=O)oc(-c3ccccc3)cc2c1O` was tested, and the growth was 1.09. `O[C@H](CC#CCOc1ccccc1)COCc1ccccc1` showed a growth of 0.906. `COc1ccc(OC)c2c1CCN(CCc1ccc(NC(=O)c3cccc4c(=O)c5cccc(OC)c5[nH]c34)cc1)C2` was tested, and the growth was 1.01. Work on `COC(=O)C/C=C/[C@@H](C)[C@H](NC(=O)C1CCCN1)c1ccccc1` (some centres not stated) yielded a growth of 1.11. In the case of `COCOc1cc(OC)ccc1C(=O)/C=C/c1ccc2c(c1)OCO2`, the growth is reported as 0.864. Work on `COc1ccc(N2C(=O)c3nn(C)c(C(C)C)c3C2c2ccccc2)cc1` (configuration not stated) yielded a growth of 1.03. `COc1ccc(N2C(=O)C3=C(C(c4ccccc4)=NCCN3)C2c2ccc3c(c2)OCO3)cc1` (configuration not stated) showed a growth of 0.959. `COC(=O)c1cc(O)c(Cl)c(OC)c1` showed a growth of 1.12. In the case of `COc1ccc(CO/N=C2\CCCC/C=C/CCOC(=O)c3c(O)cc(O)cc3C2)cc1`, the growth is reported as 1.06. With `C=CC[C@]1(C)[C@H]2[C@H]3c4ccccc4[C@]([C@@H](COC)OC)(c4ccccc43)[C@H]2C(=O)N1C` the growth was 1.01. In the case of `COc1ccc(CC(=O)NC(C)=O)cc1OC`, the growth is reported as 1.09. In the case of `COc1ccc2ccccc2c1-c1c(OC)ccc2ccccc12`, the growth is reported as 1. `C[C@@H](O)Cn1nc2cc1COC[C@H](c1ccccc1)NC(=O)CC1(CCCCC1)CNC(=O)c1cccc-2c1` was tested, and the growth was 1.96. Molecule `CS(=O)(=O)Oc1c(CC23CCCCC2=Nc2ccc(Br)cc23)occc1=O` (configuration not stated) has a growth of 0.948. `Nc1cc(-c2ccc(F)cc2)ccc1O` gave a growth of 1.09. In the case of `COc1ccc2c(c1)[C@@H](NC(=O)C(F)(F)F)[C@@H]1CCCC[C@]21c1ccccc1`, the growth is reported as 1.02. With `Cc1nn(C)c(C)c1Nc1cc(O)cc(O)c1C(=O)N1CC[C@@H](F)C1` the growth was 1.28. Work on `CCOC(=O)C1=C(C)NC(=O)NC1c1cccc(C)c1` (configuration not stated) yielded a growth of 0.93. Work on `CS(=O)(=O)Oc1c(CC23CCCCC2=Nc2cc(Cl)cc(Cl)c23)occc1=O` (configuration not stated) yielded a growth of 1.02.
